Experimental data taken from the supplement of paper PMC3334620.
Over roughly 33,000 sequences, “E-score (-0.5 to 0.5)” has its median near -0.035; the highest 2% begin near 0.34. The list shows a part of the results.

Target: T1, Mot3 (UniProt P54785)
T1 sequence: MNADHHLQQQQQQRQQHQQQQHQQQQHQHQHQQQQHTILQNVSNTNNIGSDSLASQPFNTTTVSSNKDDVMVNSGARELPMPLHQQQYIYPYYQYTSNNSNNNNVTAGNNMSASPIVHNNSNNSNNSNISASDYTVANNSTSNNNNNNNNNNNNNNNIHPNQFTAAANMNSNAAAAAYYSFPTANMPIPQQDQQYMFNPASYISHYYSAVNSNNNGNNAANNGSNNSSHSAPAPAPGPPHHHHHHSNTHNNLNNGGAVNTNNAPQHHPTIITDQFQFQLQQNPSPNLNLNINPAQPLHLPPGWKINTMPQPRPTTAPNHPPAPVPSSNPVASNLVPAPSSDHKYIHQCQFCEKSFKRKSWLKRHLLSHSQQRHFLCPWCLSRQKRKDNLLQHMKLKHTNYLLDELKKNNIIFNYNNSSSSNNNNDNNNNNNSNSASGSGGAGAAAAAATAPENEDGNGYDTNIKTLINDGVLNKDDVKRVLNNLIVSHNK
Assay: PBM E-score (8-mer binding enrichment) (E-score (-0.5 to 0.5)); higher = stronger / more preferred TF binding; most listed sequences are background and not binding sites
Conditions: protein concentration: 200 nM; construct: GST-full length
Method in brief: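 Yeast transcription factors, full-length or as DNA-binding domains, were expressed with a GST tag using PURExpress in vitro transcription/translation. At about 100-200 nM they were applied to universal all-10-mer Agilent arrays, double-stranded by primer extension on fresh or once-stripped slides. Fluorescent anti-GST detected bound protein, and masliner normalised the scans. E-scores for ungapped eight-base words, pooled with reverse complements, came from the Universal PBM Analysis Suite.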

Sequence | PBM E-score
GAATATGA | -0.0132
GCAGGCCA | 0.169
CCCACGGC | -0.309
ATGCACGG | -0.116
CCCAAACG | -0.209
GAAAGAGC | -0.103
ACGGCGCA | -0.142
CGAAAGAC | -0.0599
GGTGTAAC | 0.164
ATCCCACA | -0.23
ATTCAGCC | -0.0435
ACGGGGTC | -0.29
CTTTTACA | 0.345
ACATGAGG | 0.196
CATTAGTC | -0.252
ACCGTTGG | -0.129
AAGGCGGA | -0.0743
CGTCGACG | -0.3
GTAGTTGA | 0.101
AAGGGAGG | -0.08
AGTGCATC | -0.111
ACAACCCA | 0.145
GTCTACTA | 0.0859
ACAACGGC | -0.0371
ATGATGAG | -0.104

Sequence | PBM E-score
CAGCACGC | -0.126
CGCACCCA | -0.22
ACGTTATA | 0.254
CCAGGATA | -0.121
CATGCGGA | -0.11
ACACACAG | 0.324
AGTGCACC | -0.116
CGCTTCAG | -0.0319
AAATGACG | 0.0556
CGAGGTAG | -0.318
AACCTGAG | -0.0479
CTCAACGC | -0.0236
GCACCTCA | 0.184
CATCTTAA | 0.0785
CAGGGCAA | 0.0999
AGTCAACA | 0.139
GGGGGCAA | -0.235
ACTCCCTG | -0.0992
CAGACCTC | -0.182
AAGTCGTA | 0.0233
ATATATCG | 0.0754
CCTATAAC | 0.185
CCGAGTAC | -0.107
TACGGCGA | -0.155
GTACAATA | 0.233

Sequence | PBM E-score
GGCGGCGA | -0.165
AGAGCATC | -0.309
AGCATGGA | -0.115
AGCGACAG | -0.0977
CAAAATAG | 0.0224
TGAATACA | 0.264
AAAAGTCT | 0.0532
CATCAAGA | 0.00242
AACGTAAC | 0.205
AGAAGCCG | -0.291
CCCAAGAG | -0.15
AGGGCACC | 0.246
AATAAAGG | -0.0129
TGAGTTAA | 0.164
AGCTCCTG | 0.104
CGCAGAGA | -0.105
GGTGAAAA | -0.0177
AATAAATA | 0.162
GTGGTGTA | 0.228
AGCGACTC | -0.134
GCTAGTCA | -0.23
GGCGCTCA | -0.193
CTAACAGA | -0.0801
ACTTGGCT | 0.0138
AGCTATTC | -0.107

Sequence | PBM E-score
CACCCGAG | -0.336
ATGCAGTC | -0.0608
ACAACAAT | 0.182
GATCTCCC | -0.297
ATATATCA | -0.0338
AAGATCCT | -0.0689
GCCCAAGA | -0.121
AATTGAGG | 0.0355
CGGGCGCC | -0.149
ATGCCAGA | -0.151
AGTTGGCC | -0.184
GCTTCCAC | -0.233
ACCAAACT | -0.0325
ACCATGAA | -0.0629
GTGCATAA | 0.084
GTGGTCCA | -0.178
AAAGATAC | -0.028
GCTGTAAC | 0.0586
AATCACCC | -0.0596
AGAGGGGC | -0.00511
AAGGTCGC | -0.233
ACAGATCT | 0.0117
CTATTCAG | 0.159
AAGGCAAC | 0.487
CAGATTTA | 0.114

Sequence | PBM E-score
ACGGGACA | -0.184
ACCGCCTC | -0.0433
CAGTAATG | 0.163
TCACTAGA | -0.0958
CTTAGTCC | -0.142
TAGCCGAA | -0.273
TACCGCTA | 0.0203
CGTGTGGA | 0.0449
AGACACTC | -0.144
AGAACCGC | 0.164
AAAAACTA | 0.151
GAGACACA | -0.109
ACTTCAAC | 0.0553
GTCGCCGA | -0.141
GCAGTAAC | -0.0362
AACCCGTC | -0.122
ATACTCTA | 0.00888
TTAAAGAA | 0.178
TAAGGGAA | 0.162
CATCCGGC | -0.264
CATTCAAC | 0.133
ATTAGATG | 0.179
AGTAACTA | -0.00888
CAAATAAG | -0.0976
CCTCGGCC | -0.174

Sequence | PBM E-score
ACACCCAC | -0.00986
CGTTATAC | 0.178
ATTGTGTG | 0.0589
ACCTCCGA | -0.168
ACTGTGCG | -0.0668
ACAACTCT | 0.0579
ACAACTGA | 0.172
GCCCTCCA | -0.18
CCATTACG | 0.177
ATCTACCC | -0.115
AGGTTTTG | -0.119
CCCACACG | -0.144
CACCCCCG | -0.053
ACCGGTGA | -0.16
TGTCCTAA | 0.1
AAATACCA | 0.0521
GAAGCTAC | -0.0982
AACACAAC | 0.327
AAAGCAAT | 0.13
GGGGCGAA | -0.255
GGCTTACA | 0.167
AAGGGACA | -0.126
TACGTATA | 0.309
GGATGGCA | -0.14
AGAGTATC | 0.0365

Sequence | PBM E-score
AAGGGAAA | 0.0842
CCGAAGCG | -0.237
ATGGTGTG | 0.19
ACTTCCAC | -0.156
GCTTTCAC | -0.037
AACGGGGG | -0.143
ACGAGGCC | -0.122
ATCTAAGC | -0.00987
AGATCAAC | 0.136
AGGTACCA | 0.361
CATACTAG | -0.00788
ATGTTGCG | 0.157
GCCGAGTA | -0.243
CCTGTATC | 0.137
ATCCAACA | 0.056
CAGTAGCA | -0.0935
ACCCTCCT | -0.259
GATTGAGC | 0.0033
AATCAGGC | 0.32
GTTAAAGA | 0.205
AGCCCGTG | -0.242
CACGATGA | 0.0984
